# Results taken from article PMC4336329 (PLoS ONE, 2015).
# Among all 310,000 compounds or so, about 14,000 (4.5%) showed an effect of 50% or more. The effect is printed as a negative number. The list shows a part of the results.
# Molecular target: human ether-à-go-go-related gene (hERG) potassium channel (human, UniProt Q12809)
# Experiment: primary screen, population patch clamp on CHO cells stably expressing hERG
# 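Also: peak tail current of the secondary pulse compared with the same well before compound.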
# Chain of human ether-à-go-go-related gene (hERG) potassium channel (Q12809 whole entry, looked up): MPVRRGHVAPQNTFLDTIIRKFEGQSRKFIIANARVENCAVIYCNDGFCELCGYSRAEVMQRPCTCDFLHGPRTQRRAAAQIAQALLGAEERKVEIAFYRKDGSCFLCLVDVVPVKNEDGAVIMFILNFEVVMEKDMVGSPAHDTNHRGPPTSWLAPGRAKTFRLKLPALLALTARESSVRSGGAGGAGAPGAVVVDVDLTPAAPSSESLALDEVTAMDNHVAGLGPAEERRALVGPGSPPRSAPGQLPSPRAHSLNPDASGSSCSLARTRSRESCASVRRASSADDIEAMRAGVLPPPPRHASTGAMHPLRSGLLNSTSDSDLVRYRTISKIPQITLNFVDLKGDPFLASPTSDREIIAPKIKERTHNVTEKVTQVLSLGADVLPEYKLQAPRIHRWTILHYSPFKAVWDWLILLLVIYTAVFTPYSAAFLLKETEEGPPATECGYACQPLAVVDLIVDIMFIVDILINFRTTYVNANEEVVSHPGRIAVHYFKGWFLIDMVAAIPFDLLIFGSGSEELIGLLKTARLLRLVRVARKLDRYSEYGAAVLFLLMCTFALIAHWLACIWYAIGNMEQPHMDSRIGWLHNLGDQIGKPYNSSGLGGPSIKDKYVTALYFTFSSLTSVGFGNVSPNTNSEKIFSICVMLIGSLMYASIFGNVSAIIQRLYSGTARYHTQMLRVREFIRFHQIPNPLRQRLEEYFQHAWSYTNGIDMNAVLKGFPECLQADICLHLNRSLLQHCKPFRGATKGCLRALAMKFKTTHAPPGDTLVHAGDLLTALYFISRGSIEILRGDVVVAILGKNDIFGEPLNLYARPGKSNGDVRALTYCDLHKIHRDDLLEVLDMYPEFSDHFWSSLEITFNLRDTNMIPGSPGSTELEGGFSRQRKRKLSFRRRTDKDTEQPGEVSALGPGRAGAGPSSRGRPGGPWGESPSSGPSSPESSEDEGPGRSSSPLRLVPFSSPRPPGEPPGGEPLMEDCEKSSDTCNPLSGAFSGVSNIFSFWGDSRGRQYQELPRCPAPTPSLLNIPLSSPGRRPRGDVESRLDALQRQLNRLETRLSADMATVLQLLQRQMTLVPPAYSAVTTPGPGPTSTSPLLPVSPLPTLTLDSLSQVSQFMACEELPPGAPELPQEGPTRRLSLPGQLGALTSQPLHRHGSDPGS
row,Structure (SMILES),"hERG current change (%, negative = inhibition) at 10uM"
1,CN1CCC(=NNc2ncnc3sc4c(c23)CCCC4)CC1,-0.962%
2,CN(CCCOc1ccccc1F)Cc1ccccc1.O=C(O)C(=O)O,-57.3%
3,CN(C(=O)C1CCCN(c2ncnc3c2nc2n3CCCCC2)C1)c1cccc(Cl)c1 (stereo not drawn),-45.9%
4,CCCOC(=O)c1ccc(Oc2c(-c3ccc(OC)cc3O)n[nH]c2C)cc1,7.67%
5,COc1ccc(NC(C)=[N+](C)CCNS(=O)(=O)c2ccc(Cl)cc2)cc1.[I-],-70.2%
6,CCOc1ccc(N2C(=O)C(Cl)=C(N3CCOCC3)C2=O)cc1,16.3%
7,Cc1c(NS(=O)(=O)c2ccc(N3CCCCC3)c([N+](=O)[O-])c2)c(=O)n(-c2ccccc2)n1C,3.37%
8,CC(C)C12CN3CCN(CC(C3)/C1=N\NC(=O)Nc1ccccc1)C2,-16.1%
9,CCN(c1ccccc1)S(=O)(=O)c1ccc(Cl)c(C(=O)NCC2CCCO2)c1 (stereo not drawn),-10.3%
10,COc1ccc(-c2nnc(SCC(=O)N/N=C/c3ccccc3C(=O)O)n2-c2ccccc2)cc1,30.2%
11,COc1ccc(C(C(=O)NC2CCCC2)N(C(=O)c2snc(C(N)=O)c2N)c2ccccc2OC)cc1OC (stereo not drawn),-1%
12,COC(=O)c1cc(NC2c3ccccc3C(=O)N2CCN2CCOCC2)cc(C(=O)OC)c1 (stereo not drawn),-12.1%
13,COC(=O)C1(Cc2ccc(O)cc2)OC(=O)C(O)=C1c1ccc(O)cc1 (stereo not drawn),1.14%
14,C/C=C/Cn1c(Br)nc2c1c(=O)n(C)c(=O)n2C,-4.98%
15,CC1CCCC(C)N1C(=O)CSc1nnc(NC(=O)Cc2cccs2)s1 (stereo not drawn),19.4%
16,CC1Sc2ccc(S(=O)(=O)NCc3ccccc3)cc2NC1=O (stereo not drawn),1.74%
17,CCn1c(=O)c([N+](=O)[O-])c(Cl)c2ccccc21,25.3%
18,Cc1ccc(Cl)cc1NC(=O)c1ccc(NC(=O)CCC(=O)O)cc1,5.63%
19,CCOC(=O)c1ccc(NC(=O)C(=O)NCCc2ccc(OC)cc2)cc1,22.7%
20,CCCc1nnc(NC(=O)c2c(O)c3cccc4c3n(c2=O)CCC4)s1,-2.48%
21,C=CCc1cccc(/C=C/c2cc(=O)c3ccccc3[nH]2)c1O,14.6%

row,Structure (SMILES),"hERG current change (%, negative = inhibition) at 10uM"
1,Cc1ccc(C)c(NC(=O)CN(C)C(=O)Cc2ccc(Cl)cc2Cl)c1,13.3%
2,COc1ccc(NC(=O)CSc2nc3ccccc3c(=O)n2Cc2cccs2)c(OC)c1,-6.23%
3,O=c1[nH]c2cc3c(cc2cc1CN(CC1CCCO1)S(=O)(=O)c1ccccc1)OCCO3 (stereo not drawn),0.0167%
4,COC(=O)c1sc(NC(=O)c2c(C)noc2C)nc1C,-35.7%
5,Cc1ccc(NC(=O)Nc2cccc(F)c2)nc1,27.2%
6,CSc1ccccc1NC(=O)c1ccc(Cl)s1,-17.2%
7,O=C(O)c1cc(-c2ccccc2Cl)n(-c2ccccc2)n1,15.4%
8,CCCCOC(=O)C1=C(N)N2C(=O)C(C)SC2=C(C(=O)OCC)C1c1ccc(O)c(OC)c1 (stereo not drawn),4.52%
9,CC(=O)c1c(-c2ccccc2)c2cc(Cl)ccc2[nH]c1=O,9.33%
10,COc1ccccc1-n1nnnc1S(=O)(=O)Cc1ccc(Cl)cc1,-7.39%
11,C=CCN1C(=O)C(CC(=O)Nc2ccc(C)cc2)SC1=Nc1c(C)n(C)n(-c2ccccc2)c1=O (stereo not drawn),2.26%
12,COC(=O)[C@@]12CCCCN1[C@H](c1ccc(-c3cccc(Cl)c3)cc1)[C@H]1C(=O)N(C)C(=O)[C@H]12.O=C(O)C(F)(F)F,5.31%
13,CCc1cc2ccc(C)cc2nc1SCC(=O)Nc1cc(OC)c(OC)cc1C(=O)O,5.32%
14,CCOC(=O)Nc1ccc(N2CCOCC2)c(S(=O)(=O)N2CCOCC2)c1,-14.5%
15,Cc1cc(C)c(NS(=O)(=O)c2ccc3c(c2)NC(=O)CCS3)c(C)c1,2.99%
16,CCCn1c(N)c(N(CCOC)C(=O)/C=C/c2ccc(C(=O)OC)cc2)c(=O)[nH]c1=O,32%
17,COc1ccc(CNC(=O)c2ccc(NC(=O)C3=CSCCO3)cc2)cc1,20.6%
18,CCCC(=O)N(Cc1cccnc1)c1nc2c(OC)ccc(Cl)c2s1,5.34%
19,CCn1ncc(CN2CCCC(CNC(=O)c3ccc(F)cc3)C2)c1C (stereo not drawn),-1.04%
20,N#C/C(=C\c1cccs1)Sc1nc2ccccc2s1,6.22%
21,CCOC(=O)c1c(C)n(C)c2ccc(O)c(CN(CC)CC)c12.Cl,-20%

row,Structure (SMILES),"hERG current change (%, negative = inhibition) at 10uM"
1,C=CCn1c(SCC(=O)NC)nnc1C12CC3CC(CC(C3)C1)C2,9.16%
2,NS(=O)(=O)c1cccnc1Nc1c(Cl)cccc1Cl,10.6%
3,Cc1nnc(Cn2cnc3c2c(=O)n(C)c(=O)n3C)o1,23.4%
4,CN(CC#CCC(c1ccccc1)c1ccccc1)C(C)(C)C.Cl,-83.3%
5,Cc1cc(=O)[nH]c(SCC(=O)Nc2ccc(S(=O)(=O)N3CCCCC3)cc2)n1,-6.37%
6,c1ccc(-c2nnc(CSc3ccc4c(c3)OCCO4)o2)cc1,-5.47%
7,O=C(Nc1ccc(Cl)cc1C(F)(F)F)c1ccccc1Cl,0.354%
8,Cc1occc1C(=O)Nc1nnc(C2CCCCC2)s1,-1.61%
9,CCOC(=O)N1CCN(c2cc3nccnc3cc2F)CC1,-12.5%
10,CSCCC(NC(=O)COc1ccccc1)C(=O)N1CCN(c2ccccc2O)CC1 (stereo not drawn),-46.8%
11,Cc1ccc(C(c2nnnn2CS(=O)(=O)c2ccc(C)cc2)N2CCC(C)CC2)cc1 (stereo not drawn),8.46%
12,COc1ccc(/C=N/Nc2cc(N(C)C)nc(N(C)C)n2)cc1,-28.5%
13,CC(=O)Oc1ccc2occ(-c3ccccc3)c2c1,20%
14,Cn1c(SCc2cc(=O)[nH]c3ccccc23)nnc1-c1ccc(Br)cc1,-48.6%
15,O=C(Nc1nc(-c2ccncc2)cs1)C1COc2ccccc2O1 (stereo not drawn),-10.7%
16,Cc1ccc(-n2nc3c(N4CCC(C(=O)NCCc5ccco5)CC4)nnc(C)c3c2C)cc1,-15.6%
17,COc1ccc(/C=C(\NC(=O)c2cccs2)C(=O)Nc2ccccc2C)cc1OC,-8.59%
18,O=C(O)CCCCCn1c(SCC(=O)N2CCCC2)nc2ccsc2c1=O,16.9%
19,O=C(NC1CCN(Cc2ccccc2)CC1)C1CCN(S(=O)(=O)c2cccc3cccnc23)CC1,-9.42%
20,COc1cc(CC(=O)OCC(=O)N2CCCCC2)cc(OC)c1OC,16%
21,O=C(CSc1nnc(CNC(=O)c2cccs2)o1)Nc1ccccc1F,5.64%

row,Structure (SMILES),"hERG current change (%, negative = inhibition) at 10uM"
1,C[C@@H]1O[C@@H](Oc2c(-c3cc(O)c(O)c(O)c3)oc3cc(O)cc(O)c3c2=O)[C@H](O)[C@H](O)[C@H]1O,4%
2,COc1ccccc1NC(=O)CCc1c(C)[nH]c(=O)c(C#N)c1C,-12.7%
3,COc1cc(/C=N/NC(=O)c2cc(C)oc2C)ccc1OCc1ccccc1,-11.5%
4,CC(=O)c1cccc(NS(=O)(=O)c2ccc(N/C=C\C(=O)c3ccc(C)cc3)cc2)c1,4.74%
5,COc1ccc(NC(=O)CCC(=O)c2cccs2)cc1S(=O)(=O)Nc1ccccc1Cl,-5.65%
6,COc1ccc(NC(=O)CN(C)C(=O)c2c(-c3c(F)cccc3Cl)noc2C)cc1,-16.2%
7,COc1cc2cnc(Cl)nc2cc1OC,9.52%
8,Cc1c(C(=O)Nc2ccc(S(=O)(=O)Nc3ncccn3)cc2)oc2ccc(Cl)cc12,-17.4%
9,C#CCOCCOCCOCCNc1nc(N2CCN(C(=O)[C@H]([C@@H](C)CC)n3cc([C@@H](N)Cc4ccc(O)cc4)nn3)CC2)nc(N2CCN(C(=O)[C@H](CCCCN)n3cc([C@@H](N)CO)nn3)CC2)n1.Cl,7.78%
10,Cc1cc(NC(=O)CSC2=Nc3ccccc3C3=NC(Cc4ccccc4)C(=O)N23)n[nH]1 (stereo not drawn),-21%
11,COc1ccc(NC(=O)C(=O)Nc2cccc3ccccc23)c(OC)c1,9.31%
12,CN(C)S(=O)(=O)c1cccc(C(=O)Nc2ccc(Cl)cn2)c1,-5.22%
13,Cc1c(Cl)cccc1NC(=S)NCc1ccco1,4.12%
14,CC#CCCCC(=O)Nc1cc(OC)nc(OC)n1,-6.02%
15,CN(c1ccccc1C(=O)Nc1cccc(Cl)c1Cl)S(C)(=O)=O,10.5%
16,Cc1c(Cl)cccc1NC(=O)C1CCN(c2cnccn2)CC1,-3%
17,COc1ccc(C(=O)c2c3ccccc3[n+]([O-])n2Cc2ccc(C(N)=O)cc2)cc1,4.67%
18,CC(C)(C)NC(=O)COC(=O)C1c2ccccc2Oc2ccccc21,2.16%
19,O=C(COC(=O)C1CCN(S(=O)(=O)c2cccs2)CC1)NCc1ccc(F)cc1,-49.7%
20,O=C(CN1CCOCC1)NNc1c2ccccc2nc2ccccc12,5.93%
21,CC(=O)N/C(=C/c1ccccc1)c1ccccc1,11.1%
